Laboratory results published in PubChem BioAssay AID652154 (Broad Institute, 2013).
In all, about 360,000 compounds went through this assay and about 4,200 (1.2%) were called active. Inconclusive means that the source gave no clear call. Such entries were picked first, then a sample of the others.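 Rule for the calls: active = mean replicate inhibition at least 60% with every replicate also reaching 60%; inconclusive = only one of the two criteria is met; inactive = mean below 60% and not all replicates reaching 60%.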 Some compounds were tested as several samples or in several runs, with calls that do not always agree.

Assay: inhibitors of PAX8-driven TPO luciferase reporter, primary screen, RMG-I cells, single concentration (AID 652154);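 note: luciferase light reporting Pax8 driven TPO promoter activity; plate controls were median of neutral control wells for no effect and mitoxantrone controls for full effect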
Details: SteadyGlo, 24 h, at 12.6 µM, hits give high values

| SMILES | inhibition |
| --- | --- |
| COc1ccc([Si](C)(C)[C@H]2[C@H](CCO)O[C@@]3(C(=O)N(Cc4cccc(NC(C)=O)c4)c4ccccc43)[C@@H]2C)cc1 | inconclusive: 62.7% |
| COC(=O)C1=C(C)N(Cc2ccc(C(F)(F)F)cc2)C(=NCc2ccccc2)NC1c1cccc(C(F)(F)F)c1 (stereo not drawn) | inconclusive: 73.1% |
| COc1cccc(/C=N/Nc2nccnc2Cl)c1O | inconclusive: 60.6% |
| CC1(Cc2cccc(F)c2)C(=O)Nc2ccc(-c3cccnc3)cc21 (stereo not drawn) | inactive: -18.2% |
| Cc1ccc(S(=O)(=O)CCC(=O)c2ccc(F)cc2)cc1 | active: 95.5% |
| COc1cc(OC)c2c(-c3cccc(-c4cccc(N)c4)c3)cc(=O)oc2c1 | inconclusive: 62.2% |
| Cc1ccc(C)c(CN2C(=O)c3ccccc3S(=O)c3ccc(C(=O)N4CCN(c5ccccn5)CC4)cc32)c1 (stereo not drawn) | inconclusive: 60.3% |
| O=C1/C(=C/c2ccccc2F)SC(=S)N1CC(=O)N1CCCCC1c1cccnc1 (stereo not drawn) | active: 100% |
| CN(C(=O)/C=C/c1ccc([N+](=O)[O-])s1)c1ccccc1 | inconclusive: 62.3% |
| C[C@@H]1CN([C@@H](C)CO)C(=O)Cc2cc(NC(=O)Nc3ccc(C(F)(F)F)cc3)ccc2O[C@@H]1CN(C)C(=O)Nc1ccc2c(c1)OCO2 | inconclusive: 62.7% |
| OCCN1CCN(CC/C=C2/c3ccccc3CSc3ccccc32)CC1 | inactive: 11.1% |
| CNC(=O)c1cc(NC(=O)CCn2nc(-c3ccccc3)c3ccccc3c2=O)ccc1OC | inconclusive: 61.3% |
| O=C(Nc1cccc(F)c1)N1CCCCN2[C@H](CO)[C@H](c3ccc(-c4ccccc4F)cc3)[C@H]2C1 | inconclusive: 63.5% |
| COc1ccccc1/C=C/C=N/NC(=O)c1cc(-c2ccc(C)o2)[nH]n1 | inconclusive: 60.8% |
| CCOC(=O)c1sc(NC(=O)Cn2nnc3sc4c(c3c2=O)CCC(C(C)(C)C)C4)nc1C (stereo not drawn) | active: 72.9% |
| CC(C)(C)OC(=O)NCCCC[C@H](NC(=O)c1[nH]cnc1C(=O)Nc1ccccc1)C(=O)OC(C)(C)C | inconclusive: 64% |
| O=C(NS(=O)(=O)c1ccccc1[N+](=O)[O-])c1ccccc1 | inactive: -11% |
| C[C@H](CO)N1C[C@H](C)[C@@H](CN(C)S(=O)(=O)c2ccccc2)OCCCC[C@H](C)Oc2ccc(NS(=O)(=O)c3ccc(Cl)cc3)cc2C1=O | active: 85.7% |
| COCCOC(=O)N1C(=O)[C@@]2(c3ccccc31)[C@H](c1ccccc1OCCO)N1[C@H](c3ccccc3)[C@H](c3ccccc3)OC(=O)[C@H]1[C@@H]2C(=O)NC[C@H](O)c1ccccc1 | active: 109% |
| COc1cc2c(c(OC)c1OC)-c1ccc(OC)c(=O)cc1[C@@H](NC(C)=O)CC2 | active: 95.8% |
| NC(Cc1ccc(Cl)cc1)c1csc(Nc2nccc(C(F)(F)F)n2)n1 (stereo not drawn) | inactive: -13.6% |
| C=CCNc1ccc(N2C(=O)CCCC2=O)cc1[N+](=O)[O-] | inactive: -20.3% |
| C[C@@H]1CCCCO[C@@H](CN(C)S(C)(=O)=O)[C@H](C)CN([C@H](C)CO)C(=O)c2cc(NC(=O)Cc3ccccc3)ccc2O1 | inactive: 4.82% |
| CN1CCC(NCCC(c2ccc(F)cc2)c2ccc(Cl)cc2)CC1 (stereo not drawn) | inconclusive: 64.1% |
| CC(C)c1ccccc1-n1c(SCC(=O)c2ccc3c(c2)NC(=O)CO3)nc2ccccc2c1=O | inconclusive: 70.8% |

| SMILES | inhibition |
| --- | --- |
| C[C@@H]1CCCCO[C@@H](CN(C)Cc2ccc(C(F)(F)F)cc2)[C@H](C)CN([C@H](C)CO)C(=O)c2cc(NS(=O)(=O)c3ccc(Cl)cc3)ccc2O1 | active: 103% |
| COc1ccc(NC(=O)Cn2c(=O)oc3cc(S(=O)(=O)N4CCCC4)ccc32)cc1 | inconclusive: 68.7% |
| COc1ccc(Cl)cc1NC(=O)Cc1c(F)cccc1Cl | inconclusive: 63.4% |
| C[C@@H]1CCCCO[C@H](CN(C)S(=O)(=O)c2ccc(Cl)cc2)[C@@H](C)CN([C@@H](C)CO)C(=O)c2cc(NS(=O)(=O)c3cccs3)ccc2O1 | inconclusive: 61.1% |
| C[C@@H]1CCCCO[C@H](CN(C)C(=O)Nc2cccc3ccccc23)[C@@H](C)CN([C@@H](C)CO)C(=O)c2cc(NC(=O)Nc3ccc(F)cc3)ccc2O1 | inconclusive: 62.2% |
| O=S(=O)(c1ccc(-c2ccccc2)cc1)N1C[C@@H]2N[C@H](C1)[C@@H]2c1ccc(-c2cccnc2)cc1 | inconclusive: 61.2% |
| O=C(Nc1ccc(C(F)(F)F)cc1)N1C[C@@H]2N[C@H](C1)C2c1ccc(/C=C/c2ccccc2)cc1 (stereo partly drawn) | active: 90.4% |
| Cc1ccccc1[C@@]1(C)ON(c2ccccc2C(F)(F)F)C1=O | inconclusive: 62.1% |
| C[C@@H]1CCCCO[C@@H](CN(C)S(=O)(=O)c2ccccc2)[C@H](C)CN([C@H](C)CO)C(=O)c2cc(NC(=O)C3CCCCC3)ccc2O1 | inactive: 7.8% |
| CN(C)S(=O)(=O)c1cccc(NC(=S)N/N=C/c2cc(Br)ccc2O)c1 | inconclusive: 60.6% |
| S=C(Nc1ccccc1)Nc1ccc(Cl)cc1Cl | inactive: 6.07% |
| C[C@@H]1CN([C@@H](C)CO)C(=O)c2cc(NS(=O)(=O)c3ccccc3)ccc2O[C@H]1CN(C)C(=O)Nc1ccc(F)cc1 | inactive: 3.09% |
| C[C@H](CO)N1C[C@H](C)[C@H](CN(C)S(C)(=O)=O)Oc2cc(-c3ccc(F)cc3)ccc2S1(=O)=O | inactive: -15.1% |
| CC(C)C#Cc1ccc([C@H]2[C@@H](CO)N3CCCCN(S(=O)(=O)Cc4ccccc4)C[C@H]23)cc1 | inconclusive: 62.9% |
| C#CCN(C[C@@H]1[C@@H](OC(=O)NCc2ccccc2F)[C@@H](OC(=O)NCc2ccccc2F)Cn2c(=O)ccc(=O)n21)S(=O)(=O)c1ccc(C)cc1 | active: 105% |
| Nc1nc2n(n1)C(c1cccc(Cl)c1)CC(c1ccc(F)cc1)N2 (stereo not drawn) | inactive: -18.8% |
| C[C@@H]1CCCCO[C@@H](CN(C)Cc2ccc(Cl)c(Cl)c2)[C@H](C)CN([C@@H](C)CO)C(=O)c2cc(NC(=O)c3ccccc3)ccc2O1 | inconclusive: 63.4% |
| COc1ccc(-c2ccc(C3[C@@H]4CN(C(=O)Nc5cccc(F)c5)C[C@H]3N4)cc2)cc1 (stereo partly drawn) | active: 100% |
| CNC(=O)c1c(NC(=O)CCS(=O)(=O)c2ccc(C)cc2)sc2c1CCN(C(=O)OC)C2 | inconclusive: 60.1% |
| Cc1cccc(N2CN(Cc3ccco3)CNC2=S)c1C | inactive: -7.2% |
| C[C@@H]1CCCCO[C@H](CN(C)Cc2ccc(C(F)(F)F)cc2)[C@@H](C)CN([C@@H](C)CO)C(=O)c2cc(NC(=O)Cc3ccccc3)ccc2O1 | active: 85.1% |
| COc1ccc(-c2cn3cc(C)ccc3n2)cc1F | inactive: 8.24% |
| C[C@H](CO)N1C[C@H](C)[C@H](CN(C)C(=O)c2cnccn2)Oc2ncc(-c3ccccc3F)cc2C1=O | inactive: -10.3% |
| COc1ccc(-c2nsc3c(N4CCCCC4C)ncnc23)cc1 (stereo not drawn) | inconclusive: 60.7% |
| Cc1nc([N+](=O)[O-])c(Br)n1Cc1ccccc1 | inactive: -3.46% |

| SMILES | inhibition |
| --- | --- |
| COc1ccc(C(=O)CCS(=O)(=O)c2ccc(C)cc2)cc1 | inconclusive: 66% |
| COc1ccc(S(=O)(=O)Nc2ccc3c(c2)C(=O)N([C@@H](C)CO)C[C@@H](C)[C@@H](CN(C)C(=O)Nc2ccc4c(c2)OCO4)OCCCC[C@H](C)O3)cc1 | inactive: 23.4% |
| O=C(NCc1ccc(F)cc1)c1cnccn1 | inconclusive: 64.9% |
| COc1ccccc1CNC(=O)C[C@H]1CC[C@H]2[C@@H](COC[C@H](O)CN2C(=O)Nc2ccc(C(F)(F)F)cc2)O1 | inconclusive: 60.1% |
| C/C(=N/NC(=O)c1cccs1)c1ccc(N2CCOCC2)cc1 | inconclusive: 61.1% |
| CC(Oc1ccccc1)C(=O)NNC(=O)c1ccccn1 (stereo not drawn) | active: 74.6% |
| CCCCNc1c(-c2ccc(SC(C)CC)c(OC)c2)nc2ccc(C)cn12 (stereo not drawn) | inconclusive: 61.1% |
| Cc1ccc(S(=O)(=O)N2CCN(CC(=O)Nc3ccc(N4CCOCC4)cc3)CC2)cc1C | active: 73.9% |
| CC(=O)N1CCc2cc(Br)cc(S(=O)(=O)NCc3ccc(Cl)cc3)c21 | inactive: 4.09% |
| Cc1ccc(S(=O)(=O)Nc2ccc3c(c2)C(=O)N([C@H](C)CO)C[C@H](C)[C@@H](CN(C)S(=O)(=O)c2cccs2)OCCCC[C@H](C)O3)cc1 | active: 77.2% |
| CC(C)(C)OC(=O)CC[C@@]12N=C(c3ccc(OCCCO)cc3)O[C@@H]1c1ccccc1CN(Cc1ccccc1)C2=O | inconclusive: 62.6% |
| CCC1(C)Cc2c(sc(NC(=S)NC(=O)c3ccccc3)c2C#N)CO1 (stereo not drawn) | inactive: -4.09% |
| C[C@@H]1CN([C@@H](C)CO)C(=O)Cc2cc(NC(=O)CCCCCC(=O)Nc3ccccc3N)ccc2O[C@@H]1CN(C)Cc1ccc(Oc2ccccc2)cc1 | inconclusive: 57.6% |
| C[C@@H](NC(=O)c1nc[nH]c1C(=O)N[C@@H](Cc1ccccc1)C(=O)OC(C)(C)C)c1ccccc1 | active: 95.3% |
| Cc1c(NC(=O)c2ccc([N+](=O)[O-])o2)cccc1-c1nc2ncccc2o1 | inconclusive: 61% |
| C[C@H](CO)N1C[C@H](C)[C@@H](CN(C)S(=O)(=O)c2cccs2)OCCCC[C@H](C)Oc2ccc(NC(=O)Nc3ccc(C(F)(F)F)cc3)cc2C1=O | inconclusive: 61.1% |
| COc1cc(C(=O)N2CCN(c3ccccc3)CC2)c2ccccc2n1 | inconclusive: 66.5% |
| C[C@@H]1CN([C@@H](C)CO)C(=O)Cc2cc(NC(=O)Nc3ccc(F)cc3)ccc2O[C@H]1CN(C)Cc1ccc(Oc2ccccc2)cc1 | inconclusive: 60.3% |
| O=C(C1=C[C@H](c2coc3ccccc3c2=O)C[C@H](OCc2ccc(CO)cc2)O1)N1CCCCCCC1 | inactive: -17.9% |
| O=C(NCCc1c[nH]c2ccccc12)c1ccc([N+](=O)[O-])o1 | active: 71.7% |
| C[C@@H]1CN([C@H](C)CO)C(=O)c2c(c3ccccc3n2C)-c2ccccc2CO[C@H]1CN(C)S(=O)(=O)c1ccccc1F | inactive: 40.5% |
| CN(C)CCCN(C(=O)CCS(=O)(=O)c1ccccc1)c1nc2cc3c(cc2s1)OCO3 | inconclusive: 67.7% |
| Cc1cc(C)c2sc(NNC(=O)c3ccc(S(=O)(=O)N4CCc5ccccc5C4)cc3)nc2c1 | active: 99.2% |
